# From paper PMC12136788
# This is one part of the list.
# B1: chr7:73831540:73831641:+|CDS|ENSG00000189143|msi1|total|mutant (ssRNA)
# RNA: GGGAGUUCUACAGUCCGACGAUCCAAGGCCAAGACCAUGAUCGUGGCGGGCGUGGUGUUCCUGUUGGCCGGCCUUAUGGUGACCGUGCCGGUGUCCUGGACGGCCCACAACAUCAUCCAAGACUUCUACAAUCCGCUGGUGGCCAACAGAGGAUUGAGCAUCA
# B2: ENSG00000124766:be:win_151|CDS|ENSG00000124766|bound_else_gene|NA|bound_elsewhere_windowed (ssRNA)
# RNA: GGGAGUUCUACAGUCCGACGAUCUGGUGCAAGACCCCGAGUGGGCACAUCAAGCGACCCAUGAACGCCUUCAUGGUGUGGUCGCAGAUCGAGCGGCGCAAGAUCAUGGAGCAGUCGCCCGACAUGCACAACGCCGAGAUCUCCCAACAGAGGAUUGAGCAUCA
# B3: ENSG00000111696:stop:overlap|stop_codon|ENSG00000111696|stop_codon|NA|stop_codon (ssRNA)
# RNA: GGGAGUUCUACAGUCCGACGAUCCCUGGUCAGAAAGGCCCCCCACCUUCGGAACCCCUCUCCUGCAGGAGGCCCAGGCCAAGUAGCCAAGGGCAAAAACUAGAAACUGUAACUGCCCCUGAUUGGGCAGGCAUGAUGGGGUUGCAACAGAGGAUUGAGCAUCA
# B4: ENSG00000198589:be:win_5451|CDS|ENSG00000198589|bound_else_gene|NA|bound_elsewhere_windowed (ssRNA)
# RNA: GGGAGUUCUACAGUCCGACGAUCUUUUGCACCUUUUCUUUCUCGGACACUUUUGGGUAGCCAUGGACAAGAACUGCUUAUAGAAGGAACAAGUCUGGUUUGCAUGAAGUCGAGUAGUUCAGUUGUGGAAUUGGUUAUGCUACUCAACAGAGGAUUGAGCAUCA
# B5: chr17:35724233:35724342:+|3pUTR|ENSG00000006125|msi1_unk|total|mutant (ssRNA)
# RNA: GGGAGUUCUACAGUCCGACGAUCUCCUGGAGGCAGAGAUGCAGUUACCUACCCCCGCUUUUGAUGGGUUCUCUUACCUGCCGCCGCCUUAUCCCUGGUCAUUUGGAUUUUCAGUUUGCUUUUUUCUUUUUUUCCCCUCCAAACCAACAGAGGAUUGAGCAUCA
# B6: chr12:95514132:95514176:+|3pUTR|ENSG00000111142|msi1_unk|FALSE|overlapping (ssRNA)
# RNA: GGGAGUUCUACAGUCCGACGAUCCUUUUAAAUGCUAACUGUUUUUCCCCUUCCUGUCUAGGAAAAUGCUAUAAAGCUCAAAUUAGUUAGGAAUGACUUAUACGUUUUGUUUUGAAUACCUAAGAGAUACUUUUUGGAUAUUUACAACAGAGGAUUGAGCAUCA
# B7: chr22:41177882:41177989:+|CDS|ENSG00000100393|unk|total|mutant (ssRNA)
# RNA: GGGAGUUCUACAGUCCGACGAUCCAAAACCUUUUGCGGACUCUCAGGUCUCCCAGCUCUCCCCUGCAGCAGCAACAGGUGCUCCGUAUCCUUCACGCCAACCCCCAGCUGUUGGCUGCAUUCAUCAAGCAGCGGGCUGCCAAGCAACAGAGGAUUGAGCAUCA
# B8: chr1:179105649:179105771:-|3pUTR|ENSG00000143322|msi1|total|mutant (ssRNA)
# RNA: GGGAGUUCUACAGUCCGACGAUCAGAAAGGAAACCUUGAUUCUUACCAUUGCUGCUCCAAAGGAGGCCCAGGUUAAGAGGAUCCGAGGAGACACGCGGUGCUGGGCAUUCCUGGCAGGUGUUGGGUGAUCCCCGCAGUAUGUCCAACAGAGGAUUGAGCAUCA
# B9: chrX:152971868:152971969:+|3pUTR|ENSG00000147394|unk|FALSE|unique (ssRNA)
# RNA: GGGAGUUCUACAGUCCGACGAUCUUCCCUUACAGGUAUGUUGGCAUGUGUUGGAAAAUUUACACAAUUAGGUUUAAAUUCAGUAGGAUGUGAUUUUAGGAUGCUACUGAUCAAAGUGAUAUCUGUGUCUGUUGGAAUCUUGAUCAACAGAGGAUUGAGCAUCA
# B10: chr11:95166718:95166819:-|3pUTR|ENSG00000149212|unk|FALSE|unique (ssRNA)
# RNA: GGGAGUUCUACAGUCCGACGAUCACAGUUUCCCCUUCCUCUUUCUCUUCACAUUUACUCUUUUCAACCCAAAAUAAGAGACAUAGAAAGCAAACCACAGCCAGUUUGGCAUCUUCUCAGUGCUACUAGUAUAGGCACAUACACCAACAGAGGAUUGAGCAUCA
# B11: chr1:89933607:89933717:+|CDS|ENSG00000171492|unk|total|mutant (ssRNA)
# RNA: GGGAGUUCUACAGUCCGACGAUCCAACUUUUGGUUCAAAUAUCCCAAAACAUGCUCAAAAGCCGAACAUUUUGUUUCAAUAUCCGGAAAGUGCUUUGAAUCCCCUUGGACGACAAAAGCGUUGUCUGAGACAGCAUGCGAAGACAACAGAGGAUUGAGCAUCA
# B12: chr15:60347444:60347559:-|3pUTR|ENSG00000182718|msi1_unk|FALSE|overlapping (ssRNA)
# RNA: GGGAGUUCUACAGUCCGACGAUCUAACAGUCCCCGUGGCCAUCCCUGUGAGGGUGACGUUAGCAUUACCCCCAACCUCAUUUUAGUUGCCUAAGCAUUGCCUGGCCUUCCUGUCUAGUCUCUCCUGUAAGCCAAAGAAAUGAACAACAGAGGAUUGAGCAUCA
# B13: ENSG00000070961:be:win_2301|CDS|ENSG00000070961|bound_else_gene|NA|bound_elsewhere_windowed (ssRNA)
# RNA: GGGAGUUCUACAGUCCGACGAUCAUCAUCUCCUACUGAUAAGCAUACACUGGUUAAAGGUAUAAUUGACAGCACUGUCUCAGACCAACGCCAGGUUGUAGCUGUAACUGGUGAUGGUACAAAUGAUGGCCCAGCACUAAAGAACAACAGAGGAUUGAGCAUCA
# B14: chr14:54957033:54957204:-|CDS|ENSG00000198554|control|control|control (ssRNA)
# RNA: GGGAGUUCUACAGUCCGACGAUCGCACGUUCAACUAAUAUUUUAGACAAUAUGGGCAAAUCAUCCAAGAAAUCCACUGCACUUAGUCGAACUACAAAUAAUGAAAAGUCUCCCAUUAUAAAGCCUCUGAUUCCAAAGCCGAAGCAACAGAGGAUUGAGCAUCA
# B15: ENSG00000130508:stop:overlap|stop_codon|ENSG00000130508|stop_codon|NA|stop_codon (ssRNA)
# RNA: GGGAGUUCUACAGUCCGACGAUCUGAACAUCCCAGGGGCCUGCUGUCCAGUCUGCUUACAGAAGAGGGCGGAGGAAAAGCCCUAGGCUCCUGGGAGGCUCCUCAGAGUUUGUCUGCUGUGCCAUCGUGAGAUCGGGUGGCCGACAACAGAGGAUUGAGCAUCA
# B16: chr9:123379744:123379845:-|3pUTR|ENSG00000119522|msi1|total|mutant (ssRNA)
# RNA: GGGAGUUCUACAGUCCGACGAUCGUGUUUCAGCACCGAUUCCAGUUUCGCACCCUGGGCAGACCCCCAGGCCCCAUCCGGGACCGGGCAGAGGAGGUGCUGGCGGCCCCAGGGAAGGAGGGUGUGUACCCCAAGGCCCCCUGGCAACAGAGGAUUGAGCAUCA
# B17: chr8:30843048:30843149:-|CDS|ENSG00000133863|unk|FALSE|unique (ssRNA)
# RNA: GGGAGUUCUACAGUCCGACGAUCGGAUACUAUAAUUGCUUCCAGAAAGUCAGAUCAUCCAAUAAACGAAGCAACAAUUAGCAUAGAAAAUUCUAAAUUUAACAGUAAUUUGCUUGCACACCCAGAUAUUUGUUGUAUUAGUGACAACAGAGGAUUGAGCAUCA
# B18: chr10:113876644:113876745:+|CDS|ENSG00000196865|msi1|total|mutant (ssRNA)
# RNA: GGGAGUUCUACAGUCCGACGAUCGGUUAAUGAUGCAGAUGCCAGCCUUUGGCAAGAACCCGAAGUUUCCUGCUGGCCAACUCCCGUCAUACUUGGACCUCGUGGAAACAUGUUGUUUUCUUUGAUUGGAGAGGGACACAAAGACAACAGAGGAUUGAGCAUCA
# B19: chr18:55226207:55226308:-|3pUTR|ENSG00000196628|unk|total|mutant (ssRNA)
# RNA: GGGAGUUCUACAGUCCGACGAUCAUUUUUACAGCCACACAAUUCUUGGCAUGUAUUAAGAAAAAAAAAAAUCCCUGUUCAAGCCGUUUUUCCACCUAUCAGCACUGAGUAAAUGCCAUAAAUCCAUUGAAAUGGUCUAAAUGUCAACAGAGGAUUGAGCAUCA
# B20: chr12:102196458:102196651:-|three_prime_utr|ENSG00000183395|control|control|control (ssRNA)
# RNA: GGGAGUUCUACAGUCCGACGAUCGGAGAAGCCCAUACUGCUACUAUAACUUGUGUAUGUUAAAUGUCUGUUUUAAAAGAAAGUAGUGUUAAGAUGUAUCAGUAACUGAAAUGAUAUGCUUUCUCUGUGCAUUAAACUUUGUGACAACAGAGGAUUGAGCAUCA
# B21: chr18:3066806:3067261:-|three_prime_utr|ENSG00000101605|control|control|control (ssRNA)
# RNA: GGGAGUUCUACAGUCCGACGAUCAUGACACUUUAAUUGUUUUUCUUUAUCUACAAAAUUAUGUGUUAAGAAAAUACCAUUCAUAGCAUGAAGAUUAGGAAACAGUUUUAAGGAGAAGACUUGAAUGAAGUUGGAGGGACAUUGCAACAGAGGAUUGAGCAUCA
# B22: chr9:34241424:34241533:+|CDS|ENSG00000165006|unk|total|mutant (ssRNA)
# RNA: GGGAGUUCUACAGUCCGACGAUCAACCCCAUCCUCGCCAGCUUGCAGCACAACAGCAUCCUCACACCAACUCGGGUCAGCAGCCGUGCCACGAAACAGAAAGUUCUCAGCCCACCUCACAUAAAGGCGGAUUUCAAUCUUGCUCAACAGAGGAUUGAGCAUCA
# Target: MSI1 full-length (mouse, UniProt Q61474 1-362)
# Test: nsRBNS (natural sequence RNA bind-n-seq); RBNS binding buffer (assumed for nsRBNS): 25 mM Tris pH 7.5, 150 mM KCl, 3 mM MgCl2, 0.01% Triton X-100, 500 ug/ml BSA, 20 U/ml SUPERase-In, 4 C; UNK is unkempt and MSI1 is Musashi-1; names of the RNAs are library labels; protein concentration not given here; high values mean tight binding
# Sequence of UniProt Q61474 (Q61474 whole entry): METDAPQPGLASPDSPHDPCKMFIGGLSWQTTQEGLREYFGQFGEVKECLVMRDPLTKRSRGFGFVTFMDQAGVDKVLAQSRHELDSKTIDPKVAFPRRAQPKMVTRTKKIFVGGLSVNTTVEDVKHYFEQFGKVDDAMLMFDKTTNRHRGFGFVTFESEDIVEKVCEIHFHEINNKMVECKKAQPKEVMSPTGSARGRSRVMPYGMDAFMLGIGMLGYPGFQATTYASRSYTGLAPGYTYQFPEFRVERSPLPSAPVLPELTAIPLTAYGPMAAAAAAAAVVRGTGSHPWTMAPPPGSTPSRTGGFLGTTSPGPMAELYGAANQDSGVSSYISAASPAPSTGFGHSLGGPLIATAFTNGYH
row,Binder,binding signal
1,B1,0.33 enrichment R
2,B2,0.335 enrichment R
3,B3,1.01 enrichment R
4,B4,0.53 enrichment R
5,B5,0.689 enrichment R
6,B6,6 enrichment R
7,B7,0.625 enrichment R
8,B8,0.43 enrichment R
9,B9,1.43 enrichment R
10,B10,2.88 enrichment R
11,B11,0.18 enrichment R
12,B12,2.29 enrichment R
13,B13,0.239 enrichment R
14,B14,1.64 enrichment R
15,B15,0.208 enrichment R
16,B16,0.214 enrichment R
17,B17,29.7 enrichment R
18,B18,0.304 enrichment R
19,B19,0.37 enrichment R
20,B20,1.91 enrichment R
21,B21,0.485 enrichment R
22,B22,0.785 enrichment R
